# Results: the supplement of paper PMC11417369
# Some of the results follow.
# System: PF3D7_0420300 AP2 domain 1 (GST-tagged)
# Assay: gcPBM binding intensity (ln(normalized median fluorescence intensity)); higher = stronger DNA binding
# Summary of the method: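 Using an Agilent 4 × 180k array, primer-extended double-stranded 36-bp intergenic genomic probes and negative controls were exposed for 1 h to GST-fused P. falciparum DNA-binding domains expressed in E. coli. Binding was carried out in 1× PBS with 1% milk, 0.2 mg/ml BSA, 0.5% salmon testes DNA and 0.03% Triton X-100, and protein was detected with Alexa488 anti-GST antibody and a 488 nm scan. Binding intensity is the highest Masliner-normalised natural-log median intensity across replicate spots of either probe orientation.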
row,Sequence,gcPBM binding intensity (ln)
1,AACAGATAATATAAAAAAAAAAAAAAAAATAATTAA [GTGCAC_negctrl_site69],9.26
2,GTAGTGGTTGAATATACACACATATATATATATATA [CACACA_site2651],9.46
3,AACGTGTATTTATATTGTACACATTCATACATCAAA [XGTACX_site3644],9.31
4,AGATAATAGGTTACTTGTACATATAAATAAATATAT [XGTACX_site158],9.17
5,ATATTAATTTCTCATGCATGTTCTACCCAATTGTAA [TGCATGCA_site355],9.35
6,AAAATCTAATATAATGCACACATAAAAAAAAATCAA [CACACA_site9211],9.5
7,TTTTGTTATTATGAAGTGCATTTATGTTCATGTCTA,9.22
8,AAAAAAAAAAAAAATTCACACAAGACTACTACATTT [CACACA_site4195],9.36
9,ATATATGACTAATAAAGTACATACTTCATATAATTA [XGTACX_site6699],9.09
10,ACCCTTTTATATAAGAGTACAAACGTATTATTAAAT [XGTACX_site2221],9.14
11,AATATTAAAAACAAAACACACAAAAAAAAATAAAAT [CACACA_site702],9.87
12,TATATTATATATATACTGCACTGTTTTACAAAATTA,9.17
13,TGTGTATAAGTCACTTGTACTAGTAGTAAAAAAAAA [XGTACX_site4341],9.15
14,TAATATATGTTATATACACACATATAAATATAAATA [CACACA_site6339],9.2
15,TGAAGTATAATTTATCTAATATGTTATATTTTATTT [TGCATGCA_negctrl_site56],9.14
16,CAAATAATATTATGAAGTACTTCAAATTTTGAAAGA [XGTACX_site2530],9.04
17,TTTAATATTATTATTTTACACACTTTTTTCCTTTTA [CACACA_site8780],9.42
18,AATATAGGTATATCCACACACATATTTATATTTATA [CACACA_site6867],9.67
19,TCTTATAAACTCTGCACACATAATATATTAAATGAG [CACACA_site1936],9.31
20,TAAAGTTTTTCCTATCTATATTTATATTATAAATGA [XGTACX_negctrl_site20],8.87
21,GTGAGTGAAATATGCAAACACACACCCGAAAAATGT [CACACA_site3197],9.57
22,TATAAAGGTATACAAAGTACAAAATACATATATACT [XGTACX_site6431],9.45
23,TATGATTTTAATGAAACACACAATTTTATGTTAATA [CACACA_site311],9.18

row,Sequence,gcPBM binding intensity (ln)
1,AGGTGCTTAATATATACACACATACAGATATATATA [CACACA_site5552],9.46
2,GAACTCATTACAAAGTGTACAAATTAAATAAATGGT [XGTACX_site3995],9.18
3,TTTTTCTTATTTGGATTGCACTACATATATATATAT,9.41
4,ATAAGGTTACAACAAACACACAAAGGAATATACACA [CACACA_site7840],9.87
5,AAAATTTTTTGAAATAGTACTTTTTTATATATATAT [XGTACX_site2634],9.04
6,CAACAAAATAAACACACACACACAAACACAAAAAAA [CACACA_site5806],10.3
7,TATAAATTTATATATGCATGTCAGAAAAAAAAGTAA [TGCATGCA_site414],9.23
8,ACAAAAAATTAATGAGAAATGGAATAATAAGTTATA [GTGCAC_negctrl_site321],9.31
9,GGATATTAATAAATATGTACATATGTAGATTTATTA [XGTACX_site554],9.31
10,TGTATACCTTAATATACACACATACCTATATTTATA [CACACA_site6746],9.46
11,TATAAATAGAGGAAGCGTACATATATATATATATAT [XGTACX_site4993],9.34
12,ATATATAAATATATATGTACATAAATATATATCTTT [XGTACX_site6910],9.19
13,AAGAAAAAAAAAAAAACACACATATATATATATATA [CACACA_site2027],9.46
14,AAATAAATAAATAGACGTACAAAAATATTATACATT [XGTACX_site6776],9.46
15,AATAATGAAAAAATGAATAAAATTACTATATAATTC [XGTACX_negctrl_site457],9.01
16,GATATGATGTGTTTGGTAGTTTTTGATGTTGGCATG [GTGCAC_negctrl_site506],9.42
17,TATAAATGTGTATGCGCATGTAAAAATATAATTTAT [TGCATGCA_site750],9.36
18,GTAAATAATAAACACCGTACATGGTATAATTCAATG [XGTACX_site3655],9.49
19,TGTACGAGTCGTAGAGTGCAGTCTGGAGAAAAGTAC [GTGCAC_site9683],9.19
20,TATATATATATATATACACACTTGTGCAGAATATTA [CACACA_site5257],9.27
21,CCACAGGATTGGTTCAAACACACATATTATATGACT [CACACA_site661],9.39
22,TATTTTTTTTTTTTTTGTACACATAATTGTAATCGT [XGTACX_site8415],9.25
23,CATATAAAAATGTGCACACACACACCGATATATATT [CACACA_site4940],10.1

row,Sequence,gcPBM binding intensity (ln)
1,TCACTTTTTATTAAATGTACATGCTTTCATTTTCAT [XGTACX_site8139],9.35
2,TATATATATATATATGTACACACATCAATCATATTA [CACACA_site8594],9.33
3,GAATAAATAATTAACACACACAATCTTTTTTTTTTT [CACACA_site3140],9.69
4,AAAAAAAAAATAAAATAAAATATATTATATATATTA [GTGCAC_negctrl_site431],8.9
5,TGAACAATGTATAATTGTACGCAACGAAAATAAAAA [XGTACX_site1559],9.31
6,ATCATGTTATATATGTGTACATATATATGATATAAT [XGTACX_site991],9.15
7,ATTATAAATTAAAATACACACATATATACCTAATAT [CACACA_site5541],9.74
8,ATATATAATTACACAAATAAAAAAATAAAATGAAAT [CACACA_negctrl_site1513],9.58
9,AGAATAAAAATACAAGCACACATGTATGAAATATAT [CACACA_site3213],9.79
10,TTTTGTTATGAGAGGGTGCTAATATTTGGATATAAA,9.26
11,AAAAAAAGAAAAATTGCACACACTTATAAAAATATA [CACACA_site4014],9.55
12,AAAAAAAAAAAAAGTAGTACATAATATGTTCCTCCT [XGTACX_site8356],9.06
13,TCTTATTAAAATATTTATATAGGTAATCACAATATT [GTGCAC_negctrl_site568],9.04
14,AGAAATAAGAAATATACACACATATATATATATATA [CACACA_site2808],9.24
15,TATAAAATAAGACATGCATGTTATACATATATATAT [TGCATGCA_site314],9.32
16,TATTTTTTTCTTACTACACACATATATATGCTTTCC [CACACA_site4058],9.68
17,AATGGAAAAAAAAAAATAAATACAAATAAATACAAA [GTGCAC_negctrl_site407],9.45
18,TCATTAATATTTCATAGTACAATTTTGTCTAATTGT [XGTACX_site6720],9.22
19,TTATATTATACATACACACCCATATAACATGTTTTT [CACACA_site6539],9.61
20,AAGGAATATGTATATACACACAGGTACATATATATA [CACACA_site441],9.64
21,AAAAAATAATAATAATGTACAAATAAAATAAAAACA [XGTACX_site6568],9.73
22,ATAAAAATTGAAACATGTACACATATTCATTTTATA [XGTACX_site7968],9.14
23,TCGTGTGAAAATATTACACACATTTACTATAGTATC [CACACA_site7590],9.48

row,Sequence,gcPBM binding intensity (ln)
1,ATATATTTTTACCATACACACATATAATAAATATAT [CACACA_site3722],9.52
2,AAAAAAAAAAAAAAATGTACATATATATATATATAT [XGTACX_site876],9.15
3,ACATATACAAGACACACACACAACGTTTTAATAAAT [CACACA_site7017],10.2
4,ATAATAATATTGTGTACACAATAATTTGTCAAATCA [CACACA_site6019],9.06
5,GTATATTTTAATATGACACACATATTATATATATAT [CACACA_site2483],9.4
6,AATCAATTAATATTAGCATAAAATTTTATTATTTTG [XGTACX_negctrl_site479],9.19
7,TGACATAAAAAATATACACACTATAATATATATACT [CACACA_site4898],9.43
8,ATAATATGTATGGTCACACAGACAAGGAAAGAATAA [CACACA_site5164],9.45
9,TGTATCCATATTTGTTCACACACACCCATATTTATA [CACACA_site9190],10
10,ATTGTTATTTATTGTGTGCGCATTAATACATACATA [GTGCAC_site9982],9.5
11,TAATGTTGAGAATTTTGTACATATAGATCAATTTAT [XGTACX_site5426],8.97
12,ATTTATTATGAACATACACACAAAAAAAAAAAGTAT [CACACA_site2054],9.96
13,TAACTTTGAAAAGATGGTACACAATAATATATATAT [XGTACX_site8667],9.38
14,TACCCATGCATTTTTGCACACACATATATATATAAA [CACACA_site1429],9.71
15,AGACAGCGCACAAACACACAAACACCCACCCACATA [CACACA_site451],10.2
16,ATTTTTGTACACTTCTTTTTTTTTTTTCTTTTATGT [CACACA_negctrl_site1323],9.88
17,TACTTACATATAATAACACACAAGAAAAAAATAAAA [CACACA_site1033],9.7
18,AAAAAAAAAAATAAAGAAATCAAAATTGATGAATAA [GTGCAC_negctrl_site692],9.18
19,TATAAATATACACCCACACACATATATATATATATA [CACACA_site3745],9.66
20,TATATAAAAAATAAATGTACACATGTAATAATAAAA [XGTACX_site2640],9.58
